Measurements: the supplement of paper PMC9151546
Most values come without repeats; read them as rough.

Columns and labels:
CHO-K1 [1] = experiment: relative survival (nuclei to bead ratio vs DMSO control) (% of vehicle control); higher = more surviving cells
Protocol: (§1)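 Flow-cytometric in vitro micronucleus assay (Litron MicroFlow) in CHO-K1 cells in 96-well plates, 19 concentrations (4.5-200 µM, n=1 per concentration). Without S9, cells were exposed for 24 h and sampled at 48 h. With Aroclor 1254-induced rat liver S9, cells were exposed for 3-4 h and sampled at 27-28 h. Read-outs are %MN and %hypodiploid nuclei relative to nucleated events, and relative survival as the nuclei-to-bead ratio versus the 1% DMSO vehicle control (x100).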

CHO-K1 [2] = experiment: hypodiploid nuclei frequency (% of nucleated events); higher = more hypodiploid events (aneugenic)
Protocol: as §1

CHO-K1 [3] = experiment: micronucleus frequency (% of nucleated events); higher = more micronuclei (genotoxic)
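Throughout, for hypodiploid nuclei frequency (% of nucleated events): hypodiploid nuclei gated on a flow cytometer with 488 nm excitation after SYTOX Green staining, cultures at 37 °C, positive controls vinblastine without S9 and cyclophosphamide with S9.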
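Throughout, for micronucleus frequency (% of nucleated events): cells lysed with nuclei stained by SYTOX Green, then micronucleus-gated events counted against nucleated events by flow cytometry with 488 nm excitation.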
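Throughout, for relative survival (nuclei to bead ratio vs DMSO control): Lysed-cell nuclei stained with SYTOX Green and counted against counting beads by flow cytometry at 488 nm excitation, with vinblastine (no S9) and cyclophosphamide (plus S9) as positive controls.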

C=CCOC(=O)c1ccccc1C(=O)OCC=C [Diallyl phthalate]
Conditions | hypodiploid nuclei frequency, CHO-K1 [2] [%] | micronucleus frequency, CHO-K1 [3] [%] | relative survival, CHO-K1 [1]
concentration: 4.5 (µM), S9 metabolic activation: with S9, exposure time: 3-4 hours | 0.24 | 0.96 | 100
concentration: 4.5 (µM), S9 metabolic activation: without S9, exposure time: 24 hours | 0.42 | 1.2 | 105
concentration: 5.63 (µM), S9 metabolic activation: with S9, exposure time: 3-4 hours | 0.12 | 1.04 | 89.8
concentration: 5.63 (µM), S9 metabolic activation: without S9, exposure time: 24 hours | 0.72 | 1.28 | 110
concentration: 7.04 (µM), S9 metabolic activation: with S9, exposure time: 3-4 hours | 0.16 | 0.94 | 89.5
concentration: 7.04 (µM), S9 metabolic activation: without S9, exposure time: 24 hours | 0.56 | 1.06 | 116
concentration: 8.8 (µM), S9 metabolic activation: with S9, exposure time: 3-4 hours | 0.12 | 1.06 | 105
concentration: 8.8 (µM), S9 metabolic activation: without S9, exposure time: 24 hours | 0.58 | 1.08 | 112
concentration: 11 (µM), S9 metabolic activation: with S9, exposure time: 3-4 hours | 0.14 | 1.26 | 86.2
concentration: 11 (µM), S9 metabolic activation: without S9, exposure time: 24 hours | 0.44 | 0.94 | 109
concentration: 13.7 (µM), S9 metabolic activation: with S9, exposure time: 3-4 hours | 0.24 | 1.36 | 81.2
concentration: 13.7 (µM), S9 metabolic activation: without S9, exposure time: 24 hours | 0.64 | 1.38 | 117
concentration: 17.2 (µM), S9 metabolic activation: with S9, exposure time: 3-4 hours | 0.12 | 1.32 | 92.1
concentration: 17.2 (µM), S9 metabolic activation: without S9, exposure time: 24 hours | 0.56 | 1.08 | 102
concentration: 21.5 (µM), S9 metabolic activation: with S9, exposure time: 3-4 hours | 0.14 | 1.08 | 81.9
concentration: 21.5 (µM), S9 metabolic activation: without S9, exposure time: 24 hours | 0.84 | 1.6 | 119
concentration: 26.8 (µM), S9 metabolic activation: with S9, exposure time: 3-4 hours | 0.16 | 1.1 | 102
concentration: 26.8 (µM), S9 metabolic activation: without S9, exposure time: 24 hours | 0.7 | 1.2 | 109
concentration: 33.6 (µM), S9 metabolic activation: with S9, exposure time: 3-4 hours | 0.26 | 1.32 | 115
concentration: 33.6 (µM), S9 metabolic activation: without S9, exposure time: 24 hours | 0.8 | 1.3 | 150
concentration: 41.9 (µM), S9 metabolic activation: with S9, exposure time: 3-4 hours | 0.38 | 1.48 | 104
concentration: 41.9 (µM), S9 metabolic activation: without S9, exposure time: 24 hours | 0.74 | 1.08 | 111
concentration: 52.4 (µM), S9 metabolic activation: with S9, exposure time: 3-4 hours | 0.14 | 1.82 | 99.2
concentration: 52.4 (µM), S9 metabolic activation: without S9, exposure time: 24 hours | 0.6 | 1.4 | 120
concentration: 65.5 (µM), S9 metabolic activation: with S9, exposure time: 3-4 hours | 0.22 | 1.64 | 86.2
concentration: 65.5 (µM), S9 metabolic activation: without S9, exposure time: 24 hours | 0.74 | 1.36 | 135
concentration: 81.9 (µM), S9 metabolic activation: with S9, exposure time: 3-4 hours | 0.1 | 1.22 | 94.9
concentration: 81.9 (µM), S9 metabolic activation: without S9, exposure time: 24 hours | 0.98 | 1.4 | 107
concentration: 102 (µM), S9 metabolic activation: with S9, exposure time: 3-4 hours | 0.32 | 1.22 | 74.8
concentration: 102 (µM), S9 metabolic activation: without S9, exposure time: 24 hours | 0.94 | 1.48 | 93.8
concentration: 128 (µM), S9 metabolic activation: with S9, exposure time: 3-4 hours | 0.28 | 1.52 | 79
concentration: 128 (µM), S9 metabolic activation: without S9, exposure time: 24 hours | 1.04 | 1.34 | 114
concentration: 160 (µM), S9 metabolic activation: with S9, exposure time: 3-4 hours | 0.14 | 1.82 | 64.5
concentration: 160 (µM), S9 metabolic activation: without S9, exposure time: 24 hours | 1.26 | 1.68 | 95.1
concentration: 200 (µM), S9 metabolic activation: with S9, exposure time: 3-4 hours | 0.24 | 2.14 | 55.3
concentration: 200 (µM), S9 metabolic activation: without S9, exposure time: 24 hours | 0.92 | 1.38 | 113

O=C1CN(/N=C/c2ccc([N+](=O)[O-])o2)C(=O)N1 [Nitrofurantoin]
Conditions | hypodiploid nuclei frequency, CHO-K1 [2] [%] | micronucleus frequency, CHO-K1 [3] [%] | relative survival, CHO-K1 [1]
concentration: 4.5 (µM), S9 metabolic activation: with S9, exposure time: 3-4 hours | 0.18 | 1.08 | 91.3
concentration: 4.5 (µM), S9 metabolic activation: without S9, exposure time: 24 hours | 0.4 | 1.48 | 127
concentration: 5.63 (µM), S9 metabolic activation: with S9, exposure time: 3-4 hours | 0.26 | 1.52 | 93.4
concentration: 5.63 (µM), S9 metabolic activation: without S9, exposure time: 24 hours | 0.32 | 1.1 | 147
concentration: 7.04 (µM), S9 metabolic activation: with S9, exposure time: 3-4 hours | 0.22 | 1.02 | 88.5
concentration: 7.04 (µM), S9 metabolic activation: without S9, exposure time: 24 hours | 0.46 | 1.7 | 96.7
concentration: 8.8 (µM), S9 metabolic activation: with S9, exposure time: 3-4 hours | 0.18 | 1.44 | 112
concentration: 8.8 (µM), S9 metabolic activation: without S9, exposure time: 24 hours | 0.52 | 1.4 | 120
concentration: 11 (µM), S9 metabolic activation: with S9, exposure time: 3-4 hours | 0.26 | 1.04 | 110
concentration: 11 (µM), S9 metabolic activation: without S9, exposure time: 24 hours | 0.64 | 1.22 | 98.2
concentration: 13.7 (µM), S9 metabolic activation: with S9, exposure time: 3-4 hours | 0.36 | 1.36 | 124
concentration: 13.7 (µM), S9 metabolic activation: without S9, exposure time: 24 hours | 0.56 | 1.08 | 112
concentration: 17.2 (µM), S9 metabolic activation: with S9, exposure time: 3-4 hours | 0.36 | 1.74 | 111
concentration: 17.2 (µM), S9 metabolic activation: without S9, exposure time: 24 hours | 0.74 | 1.4 | 112
concentration: 21.5 (µM), S9 metabolic activation: with S9, exposure time: 3-4 hours | 0.16 | 1.22 | 102
concentration: 21.5 (µM), S9 metabolic activation: without S9, exposure time: 24 hours | 0.5 | 1.66 | 116
concentration: 26.8 (µM), S9 metabolic activation: with S9, exposure time: 3-4 hours | 0.2 | 1.28 | 97.1
concentration: 26.8 (µM), S9 metabolic activation: without S9, exposure time: 24 hours | 0.7 | 1.9 | 68.5
concentration: 33.6 (µM), S9 metabolic activation: with S9, exposure time: 3-4 hours | 0.2 | 1.16 | 94.8
concentration: 33.6 (µM), S9 metabolic activation: without S9, exposure time: 24 hours | 0.72 | 1.72 | 91.4
concentration: 41.9 (µM), S9 metabolic activation: with S9, exposure time: 3-4 hours | 0.4 | 1.1 | 93.7
concentration: 41.9 (µM), S9 metabolic activation: without S9, exposure time: 24 hours | 0.58 | 1.54 | 93.1
concentration: 52.4 (µM), S9 metabolic activation: with S9, exposure time: 3-4 hours | 0.2 | 0.94 | 81.9
concentration: 52.4 (µM), S9 metabolic activation: without S9, exposure time: 24 hours | 0.6 | 1.66 | 96.7
concentration: 65.5 (µM), S9 metabolic activation: with S9, exposure time: 3-4 hours | 0.26 | 1.04 | 91.8
concentration: 65.5 (µM), S9 metabolic activation: without S9, exposure time: 24 hours | 0.7 | 1.64 | 78.7
concentration: 81.9 (µM), S9 metabolic activation: with S9, exposure time: 3-4 hours | 0.24 | 1.54 | 88.2
concentration: 81.9 (µM), S9 metabolic activation: without S9, exposure time: 24 hours | 0.62 | 2.36 | 108
concentration: 102 (µM), S9 metabolic activation: with S9, exposure time: 3-4 hours | 0.46 | 1.86 | 95.1
concentration: 102 (µM), S9 metabolic activation: without S9, exposure time: 24 hours | 0.96 | 2.68 | 60.5
concentration: 128 (µM), S9 metabolic activation: with S9, exposure time: 3-4 hours | 0.38 | 1.64 | 104
concentration: 128 (µM), S9 metabolic activation: without S9, exposure time: 24 hours | 1.2 | 3.08 | 55.8
concentration: 160 (µM), S9 metabolic activation: with S9, exposure time: 3-4 hours | 0.28 | 1.24 | 87.3
concentration: 160 (µM), S9 metabolic activation: without S9, exposure time: 24 hours | 1.08 | 3.66 | 52.2
concentration: 200 (µM), S9 metabolic activation: with S9, exposure time: 3-4 hours | 0.22 | 1.22 | 80.7
concentration: 200 (µM), S9 metabolic activation: without S9, exposure time: 24 hours | 0.98 | 3.2 | 48.8
